# In PubChem BioAssay AID488969 (Vanderbilt High Throughput Screening Facility, 2010):
# Over roughly 110,000 compounds, “z-score” has its median near -0.1; the highest 2% begin near 2. This is one part of the list. The source made the active and inactive calls.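 How the source made its calls: active means z-score in the third read window above 3 or below -3; inactive means the rest.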
# Molecular target: Metabotropic glutamate receptor 8 (Rattus norvegicus) (UniProt P70579)
# Assay: rat mGluR8 modulators via GIRK flux, primary screen, cell-based, thallium flux, HTS (AID 488969)
# Details: HEK293 rat mGluR8, GIRK (G protein-gated inwardly rectifying potassium channel) thallium flux, FluoZin2; at 10 µM; stronger effect = higher value; submaximal glutamate (EC20) added with thallium
# UniProt P70579, sequence (P70579 whole entry, looked up): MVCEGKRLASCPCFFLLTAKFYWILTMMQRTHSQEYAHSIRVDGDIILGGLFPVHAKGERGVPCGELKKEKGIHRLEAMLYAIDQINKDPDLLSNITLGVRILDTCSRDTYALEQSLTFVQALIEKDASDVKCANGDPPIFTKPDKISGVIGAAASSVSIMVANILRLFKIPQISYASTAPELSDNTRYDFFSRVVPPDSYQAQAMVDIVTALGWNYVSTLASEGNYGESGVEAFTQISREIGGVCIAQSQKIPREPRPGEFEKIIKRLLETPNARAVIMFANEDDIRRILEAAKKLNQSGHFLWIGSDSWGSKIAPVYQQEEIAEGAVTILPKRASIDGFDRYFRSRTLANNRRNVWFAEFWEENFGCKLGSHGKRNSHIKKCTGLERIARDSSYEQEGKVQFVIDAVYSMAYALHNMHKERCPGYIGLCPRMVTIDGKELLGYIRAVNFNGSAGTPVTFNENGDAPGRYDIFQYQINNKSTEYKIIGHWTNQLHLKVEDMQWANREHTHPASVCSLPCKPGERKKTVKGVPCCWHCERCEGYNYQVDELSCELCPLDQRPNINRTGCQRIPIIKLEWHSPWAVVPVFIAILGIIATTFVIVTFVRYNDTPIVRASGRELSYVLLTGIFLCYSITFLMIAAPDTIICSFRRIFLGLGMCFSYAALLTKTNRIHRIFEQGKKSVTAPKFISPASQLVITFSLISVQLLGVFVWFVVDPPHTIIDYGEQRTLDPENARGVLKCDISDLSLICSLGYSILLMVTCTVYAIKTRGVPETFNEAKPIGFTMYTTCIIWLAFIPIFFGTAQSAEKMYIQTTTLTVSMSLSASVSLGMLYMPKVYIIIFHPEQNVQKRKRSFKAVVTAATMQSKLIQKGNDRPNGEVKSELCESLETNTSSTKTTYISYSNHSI
row,Structure (SMILES),z-score
1,CC(C)OC(=O)c1ccc(NC(=O)C2C3CC4OC(=O)C2C4C3)cc1 (centres undefined),0.0627
2,CC1Cc2nc(SCC(=O)NCc3ccccc3)n(Cc3ccccc3)c(=O)c2S1 (centres undefined),-0.257
3,O=P(CCNCc1ccco1)(c1ccccc1)c1ccccc1,0.267
4,CCOC(=O)c1ccc(NC(=O)C2=C(C)Nc3nc(CCCO)nn3C2c2cccc(C)c2)cc1 (centres undefined),0.0656
5,O=C(Nc1ccc(S(=O)(=O)N2CCCCC2)cc1)c1ccc(CN2CCc3ccccc3C2)cc1,-0.289
6,CCOC(=O)C/C(C)=N/NC(=O)CN(c1ccc(Br)cc1)S(=O)(=O)c1ccccc1,-0.127
7,O=C(C1CCCN(S(=O)(=O)c2ccccc2[N+](=O)[O-])C1)N1CCN(c2ccccc2)CC1 (centres undefined),-0.215
8,Cc1ccc(N2C=Nc3ccc(C)c4nc(C)cc2c34)cc1,-1.41
9,COc1ccc(NCc2cc3cc(OC)ccc3[nH]c2=O)cc1,-0.00516
10,O=C(CS(=O)c1cccc(C(F)(F)F)c1)Nc1ccc(Cl)cc1Cl (centres undefined),-0.315
11,CCOC(=O)c1sc2nc(NC(=O)C(C)(C)C)sc2c1C,1.4
12,COc1ccc(O)c(C2=Nc3ccccc3N=C(c3cccs3)C2)c1,-0.134
13,CCOC(=O)c1ccc(N2C(=O)C(O)=C(C(C)=O)C2c2ccccc2)cc1 (centres undefined),active: -3.07
14,COc1ccc(CCNC(=O)CCCN2C(=O)c3ccccc3C2=O)cc1OC,0.0749
15,CCc1ccccc1NC(=O)CN(C)C(=O)CSc1nnc(Nc2cccc(C)c2)s1,0.0965
16,O=S(=O)(Nc1ccccn1)c1ccc(Oc2ccccc2)cc1,0.0168
17,CCC(Oc1nc2ccccc2nc1-c1ccccc1NC(C)=O)C(=O)c1ccccc1 (centres undefined),-0.416
18,O=[N+]([O-])c1ccc(Nc2nc(N/N=C/c3cccc(F)c3)nc(N3CCCC3)n2)cc1,-0.078
19,Cc1ccc(C)n1-c1ccc(N2CCOCC2)nc1,-0.064
20,c1csc(-c2nc3nc4ccccc4nc3n2Cc2ccc3c(c2)OCO3)c1,-0.615
21,Cc1c(=O)n(OCc2ccccc2F)c2ccccc2[n+]1[O-],0.527
22,Cc1cc(C(=O)NC(=S)Nc2ccccc2N2CCCC2)ccc1[N+](=O)[O-],0.156

row,Structure (SMILES),z-score
1,CNc1nc(-c2ccccc2)[n+](-c2ccc(C)cc2)s1,0.365
2,N/C(=N\OC(=O)CC1CCCCC1)c1cccc([N+](=O)[O-])c1,-0.684
3,CCCCOC(=O)c1ccc(NC(=O)CSC2=Nc3ccccc3C3CC=NN23)cc1 (centres undefined),-0.317
4,CCOc1ccccc1NC(=O)C1CCN(S(=O)(=O)c2cccc3cccnc23)CC1,-0.484
5,CCOC(=O)N1CCC(N2C(=O)c3ccccc3C2Nc2ccc(Cl)cn2)CC1 (centres undefined),-0.274
6,COc1ccc(C(=O)NNC2CC(=O)N(Cc3ccccc3)C2=O)cc1OC (centres undefined),0.313
7,CCCCCc1ccc(-c2ccc(C(=O)O)cc2)nc1,-0.169
8,Cc1ccc(-c2cc3cccc[n+]3cc2-c2ccc(C)cc2)cc1,-0.0109
9,Cc1ccnc(SCCn2c(N3CCN(Cc4ccccc4)CC3)nc3c2c(=O)[nH]c(=O)n3C)n1,-0.393
10,Cc1nnsc1C(=O)NNS(=O)(=O)c1ccccc1,-0.0677
11,CCOC(=O)C1=C(c2ccccc2)N=C2SCC(=O)N2C1c1ccc(O)c(OC)c1 (centres undefined),-0.15
12,COCC(=O)N1CCCN(c2nc3c(C)cccc3cc2C#N)CC1,0.765
13,COc1cc2nc(-c3cccs3)oc(=O)c2cc1OC,-0.693
14,NNC(=O)c1cccc(COc2cccc(Br)c2)c1,0.379
15,Cc1cc(C(=O)OCCN2C(=O)c3ccccc3C2=O)c2ccccc2n1,-0.679
16,COc1ccc(OC)c(NC(=O)c2ccc3nc(-c4ccccc4)c(-c4ccccc4)nc3c2)c1,0.122
17,O=C(O)CCn1c(SCc2ccccc2)nc2ccccc21,-0.0963
18,Cc1ccccc1-c1n[nH]c(=S)o1,0.676
19,CC(C)NC(=O)CSc1nnc(-c2ccco2)n1N,0.388
20,CCCCNC(=S)NNC(=O)c1ccc2c(c1)OCO2,-0.241
21,COc1cc(NC(=O)C/C(C)=N/NC(=O)Cc2ccc(Cl)cc2)c(OC)cc1Cl,-0.154
22,CCOC(=O)CCC(=O)N1CCOCCOCCN(C(=O)CCC(=O)OCC)CCOCC1,-0.107

row,Structure (SMILES),z-score
1,O=C(COC(=O)C1(c2ccc(F)cc2)CCCC1)NCc1ccc2c(c1)OCO2,0.123
2,COc1ccc(-c2cccc(C(=O)Nc3cccc(C(=O)O)c3)c2)cc1,-1.09
3,O=C(CSCc1ccccc1)N1CCN(c2ccccc2)CC1,-0.141
4,Cn1nnnc1-c1cc(Br)ccc1NC(=O)c1ccccc1,0.308
5,CC1CC(C)CN(c2ncnc3c2cnn3Cc2ccc(Cl)cc2)C1 (centres undefined),-0.714
6,CC(C)NC(=S)N/N=C/c1ccc(N2CCOCC2)cc1,0.522
7,COc1ccc(NC(=O)c2cnn3c(C(F)(F)F)cc(-c4ccco4)nc23)cc1OC,0.686
8,O=C(Oc1cccc(N2C(=O)CCC2=O)c1)c1ccccc1,-0.0865
9,Cc1nc(C)c(C(=O)Nc2ccc(Oc3ccccc3)cc2)o1,active: 6.45
10,O=C1C=CC2C(c3ccc4c(c3)OCO4)CC1N2Cc1ccccc1 (centres undefined),-0.17
11,O=C(O/N=C\c1ccc(N2CCCCC2)c([N+](=O)[O-])c1)c1cccc(C(F)(F)F)c1,0.31
12,CCOC(=O)C(C(=O)OCC)C1CCS(=O)(=O)C1 (centres undefined),0.345
13,Cc1nc(C)c(C(=O)NCc2ccccc2Cl)o1,0.415
14,Cc1cccc(NC(=O)CCNC(=O)c2ccco2)c1,-0.152
15,COc1cc(CNCCN2CCOCC2)ccc1OCc1ccc(Cl)cc1,0.833
16,CC1=C(C(=O)NCc2ccccn2)C2(CCC(C)CC2)OC1=O (centres undefined),-0.172
17,CCOC(=O)c1csc(NC(=O)C(C)(C)C)n1,0.0406
18,CC(C)C1CC(=O)NC(SCC(=O)Nc2ccc(Br)cc2)=C1C#N (centres undefined),-0.802
19,O=C(O)C1C2CCC(O2)C1C(=O)Nc1cccc(F)c1 (centres undefined),-0.0685
20,COC(=O)[C@H](CC(C)C)NC(=O)NC1CCCc2ccccc21 (some centres undefined),-1.09
21,CCC(C(=O)OCC(=O)Nc1ccc(SC(F)F)cc1)c1ccccc1 (centres undefined),1.28
22,CCOC(=O)C1CCCN(C(=O)c2ccc(CS(=O)(=O)c3ccc(C)cc3)o2)C1 (centres undefined),0.0134

row,Structure (SMILES),z-score
1,COCCCNC(=O)/C=C/c1ccc(Cl)cc1Cl,-0.0538
2,CCOC(=O)c1c(-c2ccccc2)csc1NC(=O)CCN1CCOCC1,-0.0435
3,O=C(CN1CCOCC1)Nc1ccc(Oc2ccc(NC(=O)CN3CCOCC3)cc2)cc1,-0.278
4,C=C(C)C(=O)OCCCCCCOc1ccc(C(=O)O)cc1,0.176
5,COc1ccc(C)cc1NC(=O)CSc1nnc(-c2ccco2)n1Cc1ccco1,-0.626
6,CN1CCN(c2ccc(NC(=O)c3cccc(OCc4ccccc4)c3)cc2)CC1,1.28
7,Clc1ccc(C2=Nn3c(nnc3-c3n[nH]c4c3CCC4)SC2)cc1Cl,-1.24
8,COc1ccc2[nH]cc(C=O)c2c1,-0.0109
9,Cc1nn(Cc2ccccc2)c(Cl)c1C(=O)NCCc1ccccc1,-0.424
10,CC(=O)NC1CC2CCC(C1)N2Cc1ccc(C)cc1 (centres undefined),-0.137
11,COc1ccc(Br)cc1-c1noc(-c2ccccc2F)n1,-0.17
12,Cn1nc(C(F)(F)F)c(/C=N/OC(=O)c2ccc(Cl)cc2)c1Cl,-0.0369
13,CCN(CC)c1nc(C)nc2c1cnn2CCc1ccccc1,1.57
14,CCOc1ccc2c(c1)c1nnc(SCC(=O)N3CCC(C)CC3)nc1n2C,-1.87
15,CSc1nsc(SCC(=O)NC2CCCCC2)n1,1.45
16,Cc1ccnc(SCc2cc(=O)c(OC(=O)c3ccc(S(=O)(=O)N(C)C)cc3)co2)n1,-0.0077
17,Cn1c(=O)n(CCOc2ccc(Cl)cc2Cl)c2ccccc21,0.514
18,C/C(=N\O)C(=O)NCc1ccncc1,0.983
19,Cc1cccc(CSc2cn(CC(=O)N3CCOCC3)c3ccccc23)c1,-0.123
20,COc1ccc(CN(C(=O)Cc2cccs2)C(C(=O)NC2CCCC2)c2ccncc2)cc1 (centres undefined),-0.254
21,COc1ccccc1Oc1cc(C#N)c(C#N)cc1-n1nnc2ccccc21,-0.616
22,Cc1ccc(CNC(=O)C2CCCN(S(C)(=O)=O)C2)cc1 (centres undefined),1.11

row,Structure (SMILES),z-score
1,O=S(=O)(/C=C/c1ccccc1)Nc1ccc(N2CCOCC2)cc1,1.67
2,CNC(=O)C1CC(=O)N/C(=N/N=C(\C)c2cccs2)S1 (centres undefined),0.265
3,O=C1c2cccc3cccc(c23)C(=O)N1CCN1CCN(C(=S)Nc2ccccc2)CC1,-0.18
4,COc1ccc([N+](=O)[O-])cc1C(=O)Nc1ccc(OCC(=O)N2CCOCC2)cc1,-0.156
5,CCOC(=O)CSc1nc2ccccc2c(=O)n1-c1ccc(C(=O)NCCOC)cc1,0.0706
6,CC(C)CCNS(=O)(=O)c1ccc(-c2ccc(S(=O)(=O)NCCC(C)C)cc2)cc1,0.201
7,CCCNC(=O)c1ccc(Cl)c(Cl)c1,0.636
8,Cc1ccc(Cl)cc1NC(=O)c1ocnc1C,-0.262
9,COc1cc(/C=C2/C(=N)N3C=CSC3=NC2=O)ccc1OCCCOc1c(C)cccc1C,0.373
10,O=C(CSc1nc2ccccc2s1)Nc1ccc(Cl)c(S(=O)(=O)N2CCOCC2)c1,-0.0799
11,CCn1c(C)c(C2=CCN(S(=O)(=O)c3ccccc3)CC2)c2ccccc21,-0.212
12,COC(=O)c1ccc(NC(=O)C(=O)N2CCN(C(=S)Nc3cccc(OC)c3)CC2)cc1,-0.0728
13,COc1ccc(CN=Cc2c(C(F)(F)F)[nH][nH]c2=O)cc1,0.314
14,CCn1nccc1C(=O)Nc1cc(Cl)ccc1Cl,-0.301
15,O=C(NC(=S)Nc1ccc(Oc2ccc(Cl)cc2)cc1)c1ccccc1,active: 3.94
16,COc1ccc(S(=O)(=O)N2CCC(C(=O)N3CCCC3)CC2)cc1Cl,-0.183
17,Cc1cc(C(=O)COC(=O)c2ccc[nH]c2=O)c(C)n1C,-0.169
18,O=C(Cc1sc(Nc2ccccc2)nc1-c1ccccc1)NCc1ccccc1,-0.316
19,COc1ccc(-c2cc(C(F)(F)F)nc(SCC(=O)N(C)Cc3cn(C)nc3C)n2)cc1OC,-0.105
20,COc1ccc(N2Cc3cccc(C(=O)O)c3C2=O)cc1,-0.66
21,COc1cccc(CNC(=O)C2CCN(S(=O)(=O)c3cccs3)CC2)c1,-0.134
